# Out of some 310,000 compounds screened, about 2,200 (0.71%) showed an effect of 50% or more. Effects have a minus sign here. The list shows a part of the results.
# Target: human ether-à-go-go-related gene (hERG) potassium channel (human, UniProt Q12809)
# Test: primary screen, population patch clamp on CHO cells stably expressing hERG
# human ether-à-go-go-related gene (hERG) potassium channel, sequence (Q12809 whole entry, looked up): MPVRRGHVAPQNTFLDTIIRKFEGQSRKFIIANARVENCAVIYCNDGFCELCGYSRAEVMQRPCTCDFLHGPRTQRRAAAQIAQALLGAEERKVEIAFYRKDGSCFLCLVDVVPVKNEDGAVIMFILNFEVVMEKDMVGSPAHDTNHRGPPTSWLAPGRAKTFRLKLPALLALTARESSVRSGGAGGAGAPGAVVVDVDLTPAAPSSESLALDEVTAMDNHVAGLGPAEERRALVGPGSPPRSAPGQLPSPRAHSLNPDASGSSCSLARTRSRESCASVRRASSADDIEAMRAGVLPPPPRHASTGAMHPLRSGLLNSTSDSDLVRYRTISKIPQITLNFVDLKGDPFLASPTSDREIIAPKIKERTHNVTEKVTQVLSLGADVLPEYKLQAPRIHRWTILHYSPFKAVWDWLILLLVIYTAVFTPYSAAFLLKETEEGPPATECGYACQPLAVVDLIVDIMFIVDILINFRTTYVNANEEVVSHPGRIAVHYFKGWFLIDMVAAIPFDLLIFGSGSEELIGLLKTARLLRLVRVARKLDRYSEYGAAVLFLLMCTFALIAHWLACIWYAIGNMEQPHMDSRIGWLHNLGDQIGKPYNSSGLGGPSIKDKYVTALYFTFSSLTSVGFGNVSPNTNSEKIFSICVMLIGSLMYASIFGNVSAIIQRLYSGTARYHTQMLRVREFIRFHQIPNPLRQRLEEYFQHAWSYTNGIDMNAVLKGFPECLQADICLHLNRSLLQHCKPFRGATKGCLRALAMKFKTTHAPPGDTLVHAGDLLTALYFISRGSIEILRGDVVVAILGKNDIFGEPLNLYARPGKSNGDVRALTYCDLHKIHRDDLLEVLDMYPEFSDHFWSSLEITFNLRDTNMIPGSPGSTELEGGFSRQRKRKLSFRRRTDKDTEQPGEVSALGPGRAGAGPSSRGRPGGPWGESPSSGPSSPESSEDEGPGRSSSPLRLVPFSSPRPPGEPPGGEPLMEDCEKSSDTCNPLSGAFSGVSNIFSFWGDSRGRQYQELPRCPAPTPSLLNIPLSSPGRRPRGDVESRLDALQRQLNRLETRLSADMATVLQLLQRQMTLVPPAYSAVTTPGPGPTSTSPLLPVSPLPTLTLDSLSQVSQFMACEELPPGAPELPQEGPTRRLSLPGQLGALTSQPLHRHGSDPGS
row,Structure (SMILES),"hERG current change (%, negative = inhibition) at 1uM"
1,CC1CCCN(C(=S)Nc2ccc(Nc3ccccc3)cc2)C1 (stereo not drawn),13.9%
2,COc1cc(/C=N/NC(=O)NC23CC4CC(CC(C4)C2)C3)ccc1OCC(N)=O,1.53%
3,Cc1[nH]c2ccc(F)cc2c1CCN1C(=O)OC(C)(C)C1(C)O (stereo not drawn),3.77%
4,Cn1c(=O)c(Oc2ccc(F)cc2)c(O)c2ccccc21,3.59%
5,O=C(O)CSc1cn(Cc2ccccc2)c2ccccc12,15.6%
6,COc1ccc(CNC(=O)/C=C/c2ccccc2[N+](=O)[O-])cc1,15%
7,COc1ccc(CN2CCN(C(=O)Cn3c(=O)oc4cc(Cl)ccc43)CC2)c(OC)c1OC,3.64%
8,CCc1nnc(NC(=O)C2CCN(c3nccc(C)n3)CC2)s1,14.4%
9,CCN(CC(=O)NCCc1ccc(S(N)(=O)=O)cc1)Cc1nc2ccccc2c(=O)[nH]1,17.9%
10,Cc1c(C)c2ccc(OCC(=O)Nc3ccc(CN4CCOCC4)cc3)cc2oc1=O,9.42%
11,Cc1nc(NC(=O)c2ccccc2)nc2cc3c(cc12)OCO3,5.52%
12,COc1cc(CCNC(=O)c2ccccc2NC(=O)C2=C(C)OCCS2)cc(OC)c1OC,11.7%
13,O=S(=O)(c1ccc(NC(=S)NC2CCCC2)cc1)N1CCCC1,11.5%
14,CCCn1c(SCC(=O)NNC(=O)c2ccc(C)cc2)nnc1C(C)C,3.29%
15,COc1ccc(-c2cc3c(=O)n(CC(=O)Nc4ccc(Cl)cc4)ncn3n2)cc1,24%
16,Cc1cc2ncn(S(=O)(=O)N3CCOCC3)c2cc1C,7.78%
17,COc1ccc(S(=O)(=O)n2nc(OC(=O)c3ccncc3)cc2N)cc1,19.9%
18,O=C(Nc1ccc(C(F)(F)F)cc1)N1CCN(C(=O)c2ccco2)CC1,-7.25%
19,C1COCCO1.Cc1ccc2nc(Nc3nc(C)cc(-c4ccccc4)n3)[nH]c(=O)c2c1,10.4%

row,Structure (SMILES),"hERG current change (%, negative = inhibition) at 1uM"
1,O=C(COC(=O)/C=C/c1ccc(Cl)cc1)NCCc1ccccc1,13.5%
2,O=C(CN1CCN(c2ccccc2)CC1)Nc1ccc(Oc2ccccc2)cc1,17.2%
3,COc1ccc(CC(=S)N2CCOCC2)cc1,8.89%
4,CC1=C(C(=O)OCc2ccccc2)C(c2ccc(C(F)(F)F)cc2)NC(=O)N1CCCCCC(=O)O (stereo not drawn),16.1%
5,CCCCn1c(N)c(N(CCOC)C(=O)c2ccc(OCc3c(C)noc3C)cc2)c(=O)[nH]c1=O,19%
6,C#CCOC(=O)C[N+](C)(C)CC#Cc1ccccc1.[Cl-],9.91%
7,C(=N\N1CCN(Cc2ccccc2)CC1)/c1cccs1,-1.33%
8,CC(Cl)c1cc(-c2ncc(C(F)(F)F)cc2Cl)no1 (stereo not drawn),5.32%
9,CCCCn1c(=S)[nH]c2ncccc2c1=O,-2.14%
10,COc1ccccc1CNC(=O)C1Cc2ccccc2C(=O)O1 (stereo not drawn),-2.63%
11,O=C(Nc1ccccc1C(F)(F)F)c1ccsc1,5.49%
12,CCN(CC)CCCNC(=O)C1c2ccccc2C(=O)N(CCOC)C1c1ccc(F)cc1 (stereo not drawn),12%
13,CCOc1ccc(-c2ccc3nnc(SCC(=O)NCC4CCCO4)n3n2)cc1 (stereo not drawn),12.1%
14,CC(=O)c1ccc(N(CC(=O)NC2CCCC2)C(=O)c2csnn2)cc1,3.39%
15,Cc1cc2ccccn2c1C(=O)c1ccc(Cl)cc1,-3.2%
16,COc1cccc(C2c3[nH]c4ccccc4c3CCN2Cc2cnc(C)s2)c1OC (stereo not drawn),12.5%
17,CC(=O)N(C)c1ccc(NC(=O)C(c2ccccc2)c2ccccc2)cc1,-2.74%
18,CS(=O)(=O)N1CCN(c2ccccc2F)CC1,7.96%
19,O=C(C1=C[C@@H]2[C@H]3C(=O)N(c4ccccc4Cl)C(=O)[C@H]3[C@@H](C(=O)c3ccc(Cl)cc3)N2C=C1)c1ccccc1,12.7%

row,Structure (SMILES),"hERG current change (%, negative = inhibition) at 1uM"
1,CCOc1ccc(OCCOCCN2CCOCC2)cc1.O=C(O)C(=O)O,6.21%
2,COc1ccc(S(=O)(=O)NCCc2cn3nc(C)c(C)nc3n2)cc1C,25%
3,Cc1cc(OCCCC(=O)Nc2nnc(C3CC3)s2)ccc1Cl,20.9%
4,CC(C)[C@@H](C(=O)NCC1CCCO1)N1C(=O)N2CCc3c([nH]c4ccccc34)[C@@]2(C)C1=O (stereo partly drawn),8.5%
5,CCc1ccc(/C=C/c2c([N+](=O)[O-])c(=O)n(C)c(=O)n2C)cc1,6.39%
6,CCCCN(C)CCC(=O)Nc1ccc(Cl)cc1.Cl,2.65%
7,Cc1nn(C)c(C)c1CNC(=O)Nc1cccc(Cl)c1C,10.7%
8,C/C(=N/NC(=O)c1cccs1)c1cccc(N)c1,26%
9,Cc1onc(-c2ccccc2)c1C(=O)N1CCN(c2ncccc2C(F)(F)F)CC1,9.72%
10,N/C(=N\OC(=O)CCc1ccccc1)c1ccccc1Cl,8.76%
11,Cc1cccc(C)c1OCc1nnc(SCC(=O)NCc2ccccc2)o1,-9.14%
12,C(=N\N1CCN(C2c3ccccc3-c3ccccc32)CC1)/c1cccs1,5.85%
13,O=C(Nc1cccc(F)c1)NC1(C(=O)N2CCOCC2)CCCCC1,8.29%
14,Cc1cc(Nc2cccc([N+](=O)[O-])c2)c2ccccc2n1,-36.7%
15,CCN(CC)c1ccc(S(=O)(=O)N(CC)CC)cc1NC(=O)C1CCCC1,9.69%
16,CCCN(Cc1ccccc1)C(=S)Nc1ccc(C(C)=O)cc1,-1.99%
17,COc1ccc(NC(=O)C2CC(=O)N=C(N)S2)cc1 (stereo not drawn),11.4%
18,O=C(c1cc(-c2ccccc2)nc2ccccc12)N1CCN(c2ccccc2O)CC1,4.64%
19,Cc1ccc(C(=O)N/N=C/c2cc(C)n(-c3ccc(Br)cc3)c2C)cc1[N+](=O)[O-],13.7%

# Reference: publication PMC4336329 (PLoS ONE, 2015)
